# Biological target: the molecule itself
# Test: SEC
row,Protein,stoichiometry N
1,"PRMT1 Y280A, purified recombinant (enzyme) not shown",2
2,"PRMT1 H296A, purified recombinant (enzyme) not shown",2
